Reference: article PMC6800368, “Rotational symmetry of the structured Chip/LDB-SSDP core module of the Wnt enhanceosome” (Proceedings of the National Academy of Sciences of the …, 2019)
These are yes or no findings as the source states them, for the method shown. For part of these data: In cells and extracts the contact can be indirect. Some results given as binding are weak or reduced against the parent protein; the word gives no strength. Where a sequence is shown, tags or fusion partners need not be part of it.

T1: SSDP-FLAG (Drosophila) (UniProt Q9VEB9)
T1 sequence: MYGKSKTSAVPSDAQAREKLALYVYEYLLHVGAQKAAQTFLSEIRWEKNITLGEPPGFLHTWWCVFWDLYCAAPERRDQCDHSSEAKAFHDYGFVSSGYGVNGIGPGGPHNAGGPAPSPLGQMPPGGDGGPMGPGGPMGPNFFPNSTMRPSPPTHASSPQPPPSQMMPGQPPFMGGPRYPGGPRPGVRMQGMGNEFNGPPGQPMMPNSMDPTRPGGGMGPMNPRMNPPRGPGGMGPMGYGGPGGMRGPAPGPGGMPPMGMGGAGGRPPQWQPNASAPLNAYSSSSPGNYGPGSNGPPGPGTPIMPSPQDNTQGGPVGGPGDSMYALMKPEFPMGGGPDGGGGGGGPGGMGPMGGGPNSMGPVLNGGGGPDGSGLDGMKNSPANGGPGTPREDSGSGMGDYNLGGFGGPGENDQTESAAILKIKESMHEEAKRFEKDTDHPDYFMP

T2: MBP-LCCD_(Chip) (Drosophila, UniProt Q7KVG9-2 384-436)
T2 construct: Drosophila Chip, LCCD, residues 384-436; also called Chip-LCCD (residues 384 to 436); source: E. coli BL21(DE3)-RIL, bicistronic coexpression with Lip-SSDP_(1–92), purified (Ni-NTA, gel filtration)
T2 sequence (looked up): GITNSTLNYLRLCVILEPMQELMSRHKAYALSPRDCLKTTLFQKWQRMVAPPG

T3: Chip-V5FLAG (Drosophila) (UniProt Q7KVG9)
T3 sequence: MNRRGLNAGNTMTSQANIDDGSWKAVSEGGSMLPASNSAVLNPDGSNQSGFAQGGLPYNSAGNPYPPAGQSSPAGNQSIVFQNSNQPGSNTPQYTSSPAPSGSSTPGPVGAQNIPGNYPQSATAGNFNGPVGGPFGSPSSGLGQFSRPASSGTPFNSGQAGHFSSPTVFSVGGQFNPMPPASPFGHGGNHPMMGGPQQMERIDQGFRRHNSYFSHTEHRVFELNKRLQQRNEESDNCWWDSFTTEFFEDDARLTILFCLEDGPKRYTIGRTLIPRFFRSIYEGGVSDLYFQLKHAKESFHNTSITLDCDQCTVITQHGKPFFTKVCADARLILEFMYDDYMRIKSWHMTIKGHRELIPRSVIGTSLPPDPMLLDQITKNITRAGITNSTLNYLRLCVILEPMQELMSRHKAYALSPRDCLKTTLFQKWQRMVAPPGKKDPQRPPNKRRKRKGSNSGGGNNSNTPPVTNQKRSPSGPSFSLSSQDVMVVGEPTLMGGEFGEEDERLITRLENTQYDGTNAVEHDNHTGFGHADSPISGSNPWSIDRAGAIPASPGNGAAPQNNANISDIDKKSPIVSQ


What follows are binders tested against T1, SSDP-FLAG (Drosophila) (assay: co-IP; SSDP-FLAG coexpressed with WT or mutant SSDP-V5 in HEK293T LDB1/LDB2 DKO cells).

binding	Binder
no binding	SSDP-V5 P55E (protein, UniProt Q9VEB9 1-445) MYGKSKTSAVPSDAQAREKLALYVYEYLLHVGAQKAAQTFLSEIRWEKNITLGEEPGFLHTWWCVFWDLYCAAPERRDQCDHSSEAKAFHDYGFVSSGYGVNGIGPGGPHNAGGPAPSPLGQMPPGGDGGPMGPGGPMGPNFFPNSTMRPSPPTHASSPQPPPSQMMPGQPPFMGGPRYPGGPRPGVRMQGMGNEFNGPPGQPMMPNSMDPTRPGGGMGPMNPRMNPPRGPGGMGPMGYGGPGGMRGPAPGPGGMPPMGMGGAGGRPPQWQPNASAPLNAYSSSSPGNYGPGSNGPPGPGTPIMPSPQDNTQGGPVGGPGDSMYALMKPEFPMGGGPDGGGGGGGPGGMGPMGGGPNSMGPVLNGGGGPDGSGLDGMKNSPANGGPGTPREDSGSGMGDYNLGGFGGPGENDQTESAAILKIKESMHEEAKRFEKDTDHPDYFMP
no binding	SSDP-V5 I50E (protein, UniProt Q9VEB9 1-445) MYGKSKTSAVPSDAQAREKLALYVYEYLLHVGAQKAAQTFLSEIRWEKNETLGEPPGFLHTWWCVFWDLYCAAPERRDQCDHSSEAKAFHDYGFVSSGYGVNGIGPGGPHNAGGPAPSPLGQMPPGGDGGPMGPGGPMGPNFFPNSTMRPSPPTHASSPQPPPSQMMPGQPPFMGGPRYPGGPRPGVRMQGMGNEFNGPPGQPMMPNSMDPTRPGGGMGPMNPRMNPPRGPGGMGPMGYGGPGGMRGPAPGPGGMPPMGMGGAGGRPPQWQPNASAPLNAYSSSSPGNYGPGSNGPPGPGTPIMPSPQDNTQGGPVGGPGDSMYALMKPEFPMGGGPDGGGGGGGPGGMGPMGGGPNSMGPVLNGGGGPDGSGLDGMKNSPANGGPGTPREDSGSGMGDYNLGGFGGPGENDQTESAAILKIKESMHEEAKRFEKDTDHPDYFMP
no binding	SSDP-V5 L52E (protein, UniProt Q9VEB9 1-445) MYGKSKTSAVPSDAQAREKLALYVYEYLLHVGAQKAAQTFLSEIRWEKNITEGEPPGFLHTWWCVFWDLYCAAPERRDQCDHSSEAKAFHDYGFVSSGYGVNGIGPGGPHNAGGPAPSPLGQMPPGGDGGPMGPGGPMGPNFFPNSTMRPSPPTHASSPQPPPSQMMPGQPPFMGGPRYPGGPRPGVRMQGMGNEFNGPPGQPMMPNSMDPTRPGGGMGPMNPRMNPPRGPGGMGPMGYGGPGGMRGPAPGPGGMPPMGMGGAGGRPPQWQPNASAPLNAYSSSSPGNYGPGSNGPPGPGTPIMPSPQDNTQGGPVGGPGDSMYALMKPEFPMGGGPDGGGGGGGPGGMGPMGGGPNSMGPVLNGGGGPDGSGLDGMKNSPANGGPGTPREDSGSGMGDYNLGGFGGPGENDQTESAAILKIKESMHEEAKRFEKDTDHPDYFMP
no binding	SSDP-V5 F58E (protein, UniProt Q9VEB9 1-445) MYGKSKTSAVPSDAQAREKLALYVYEYLLHVGAQKAAQTFLSEIRWEKNITLGEPPGELHTWWCVFWDLYCAAPERRDQCDHSSEAKAFHDYGFVSSGYGVNGIGPGGPHNAGGPAPSPLGQMPPGGDGGPMGPGGPMGPNFFPNSTMRPSPPTHASSPQPPPSQMMPGQPPFMGGPRYPGGPRPGVRMQGMGNEFNGPPGQPMMPNSMDPTRPGGGMGPMNPRMNPPRGPGGMGPMGYGGPGGMRGPAPGPGGMPPMGMGGAGGRPPQWQPNASAPLNAYSSSSPGNYGPGSNGPPGPGTPIMPSPQDNTQGGPVGGPGDSMYALMKPEFPMGGGPDGGGGGGGPGGMGPMGGGPNSMGPVLNGGGGPDGSGLDGMKNSPANGGPGTPREDSGSGMGDYNLGGFGGPGENDQTESAAILKIKESMHEEAKRFEKDTDHPDYFMP
binds	SSDP-V5 Mα3 (F66E L69A Y70A) (protein, UniProt Q9VEB9 1-445) MYGKSKTSAVPSDAQAREKLALYVYEYLLHVGAQKAAQTFLSEIRWEKNITLGEPPGFLHTWWCVEWDAACAAPERRDQCDHSSEAKAFHDYGFVSSGYGVNGIGPGGPHNAGGPAPSPLGQMPPGGDGGPMGPGGPMGPNFFPNSTMRPSPPTHASSPQPPPSQMMPGQPPFMGGPRYPGGPRPGVRMQGMGNEFNGPPGQPMMPNSMDPTRPGGGMGPMNPRMNPPRGPGGMGPMGYGGPGGMRGPAPGPGGMPPMGMGGAGGRPPQWQPNASAPLNAYSSSSPGNYGPGSNGPPGPGTPIMPSPQDNTQGGPVGGPGDSMYALMKPEFPMGGGPDGGGGGGGPGGMGPMGGGPNSMGPVLNGGGGPDGSGLDGMKNSPANGGPGTPREDSGSGMGDYNLGGFGGPGENDQTESAAILKIKESMHEEAKRFEKDTDHPDYFMP

These binders were tested against T2, MBP-LCCD_(Chip) (assay: SEC-MALS; MBP-LCCD_(Chip) (WT or Mα6) coexpressed with Lip-SSDP_(1–92) (WT, V65K, Mα3 or ML), purified; Superdex-200 10/300, 2 mg/mL, PBS, 1 mM DTT; PAGE of SEC fractions; both purified).

binding	Binder
no binding	Lip-SSDP_(1–92) V65K (domain or fragment, Drosophila, UniProt Q9VEB9 1-92, looked up, Drosophila SSDP, residues 1-92; also called SSDP V65K; source: E. coli BL21(DE3)-RIL, purified (Ni-NTA, gel filtration); alone or coexpressed with MBP-LCCD) MYGKSKTSAVPSDAQAREKLALYVYEYLLHVGAQKAAQTFLSEIRWEKNITLGEPPGFLHTWWCKFWDLYCAAPERRDQCDHSSEAKAFHDY
no binding	Lip-SSDP_(1–92) Mα3 (F66E L69A Y70A) (domain or fragment, UniProt Q9VEB9 1-92) MYGKSKTSAVPSDAQAREKLALYVYEYLLHVGAQKAAQTFLSEIRWEKNITLGEPPGFLHTWWCVEWDAACAAPERRDQCDHSSEAKAFHDY

These binders were tested against T3, Chip-V5FLAG (Drosophila) (assay: co-IP; Chip-V5FLAG (WT or mutant) coexpressed with SSDP-V5 (WT or mutant) in HEK293T cells).

binding	Binder
binds	SSDP-V5 ML (I50E L52E) (protein, UniProt Q9VEB9 1-445) MYGKSKTSAVPSDAQAREKLALYVYEYLLHVGAQKAAQTFLSEIRWEKNETEGEPPGFLHTWWCVFWDLYCAAPERRDQCDHSSEAKAFHDYGFVSSGYGVNGIGPGGPHNAGGPAPSPLGQMPPGGDGGPMGPGGPMGPNFFPNSTMRPSPPTHASSPQPPPSQMMPGQPPFMGGPRYPGGPRPGVRMQGMGNEFNGPPGQPMMPNSMDPTRPGGGMGPMNPRMNPPRGPGGMGPMGYGGPGGMRGPAPGPGGMPPMGMGGAGGRPPQWQPNASAPLNAYSSSSPGNYGPGSNGPPGPGTPIMPSPQDNTQGGPVGGPGDSMYALMKPEFPMGGGPDGGGGGGGPGGMGPMGGGPNSMGPVLNGGGGPDGSGLDGMKNSPANGGPGTPREDSGSGMGDYNLGGFGGPGENDQTESAAILKIKESMHEEAKRFEKDTDHPDYFMP
binds	SSDP-V5 F58E (protein, UniProt Q9VEB9 1-445) MYGKSKTSAVPSDAQAREKLALYVYEYLLHVGAQKAAQTFLSEIRWEKNITLGEPPGELHTWWCVFWDLYCAAPERRDQCDHSSEAKAFHDYGFVSSGYGVNGIGPGGPHNAGGPAPSPLGQMPPGGDGGPMGPGGPMGPNFFPNSTMRPSPPTHASSPQPPPSQMMPGQPPFMGGPRYPGGPRPGVRMQGMGNEFNGPPGQPMMPNSMDPTRPGGGMGPMNPRMNPPRGPGGMGPMGYGGPGGMRGPAPGPGGMPPMGMGGAGGRPPQWQPNASAPLNAYSSSSPGNYGPGSNGPPGPGTPIMPSPQDNTQGGPVGGPGDSMYALMKPEFPMGGGPDGGGGGGGPGGMGPMGGGPNSMGPVLNGGGGPDGSGLDGMKNSPANGGPGTPREDSGSGMGDYNLGGFGGPGENDQTESAAILKIKESMHEEAKRFEKDTDHPDYFMP
binds	SSDP-V5 D68R (protein, UniProt Q9VEB9 1-445) MYGKSKTSAVPSDAQAREKLALYVYEYLLHVGAQKAAQTFLSEIRWEKNITLGEPPGFLHTWWCVFWRLYCAAPERRDQCDHSSEAKAFHDYGFVSSGYGVNGIGPGGPHNAGGPAPSPLGQMPPGGDGGPMGPGGPMGPNFFPNSTMRPSPPTHASSPQPPPSQMMPGQPPFMGGPRYPGGPRPGVRMQGMGNEFNGPPGQPMMPNSMDPTRPGGGMGPMNPRMNPPRGPGGMGPMGYGGPGGMRGPAPGPGGMPPMGMGGAGGRPPQWQPNASAPLNAYSSSSPGNYGPGSNGPPGPGTPIMPSPQDNTQGGPVGGPGDSMYALMKPEFPMGGGPDGGGGGGGPGGMGPMGGGPNSMGPVLNGGGGPDGSGLDGMKNSPANGGPGTPREDSGSGMGDYNLGGFGGPGENDQTESAAILKIKESMHEEAKRFEKDTDHPDYFMP
binds	SSDP-V5 Mα3 (F66E L69A Y70A) (protein, UniProt Q9VEB9 1-445) MYGKSKTSAVPSDAQAREKLALYVYEYLLHVGAQKAAQTFLSEIRWEKNITLGEPPGFLHTWWCVEWDAACAAPERRDQCDHSSEAKAFHDYGFVSSGYGVNGIGPGGPHNAGGPAPSPLGQMPPGGDGGPMGPGGPMGPNFFPNSTMRPSPPTHASSPQPPPSQMMPGQPPFMGGPRYPGGPRPGVRMQGMGNEFNGPPGQPMMPNSMDPTRPGGGMGPMNPRMNPPRGPGGMGPMGYGGPGGMRGPAPGPGGMPPMGMGGAGGRPPQWQPNASAPLNAYSSSSPGNYGPGSNGPPGPGTPIMPSPQDNTQGGPVGGPGDSMYALMKPEFPMGGGPDGGGGGGGPGGMGPMGGGPNSMGPVLNGGGGPDGSGLDGMKNSPANGGPGTPREDSGSGMGDYNLGGFGGPGENDQTESAAILKIKESMHEEAKRFEKDTDHPDYFMP
no binding	SSDP-V5 V65K (protein, UniProt Q9VEB9 1-445) MYGKSKTSAVPSDAQAREKLALYVYEYLLHVGAQKAAQTFLSEIRWEKNITLGEPPGFLHTWWCKFWDLYCAAPERRDQCDHSSEAKAFHDYGFVSSGYGVNGIGPGGPHNAGGPAPSPLGQMPPGGDGGPMGPGGPMGPNFFPNSTMRPSPPTHASSPQPPPSQMMPGQPPFMGGPRYPGGPRPGVRMQGMGNEFNGPPGQPMMPNSMDPTRPGGGMGPMNPRMNPPRGPGGMGPMGYGGPGGMRGPAPGPGGMPPMGMGGAGGRPPQWQPNASAPLNAYSSSSPGNYGPGSNGPPGPGTPIMPSPQDNTQGGPVGGPGDSMYALMKPEFPMGGGPDGGGGGGGPGGMGPMGGGPNSMGPVLNGGGGPDGSGLDGMKNSPANGGPGTPREDSGSGMGDYNLGGFGGPGENDQTESAAILKIKESMHEEAKRFEKDTDHPDYFMP
